This note sets out measurements from article PMC6919601, “Identification of Plasmodium dipeptidyl aminopeptidase allosteric inhibitors by high throughput screening” (PLoS ONE, 2019).

Hit rate of the full screen: of about 110,000 compounds, about 230 (0.21%) showed an effect of 50% or more. The list shows a part of the results.
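Further: 30 min substrate incubation versus DMSO and 10 µM JCP410 controls.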

Sequence of DPAP1 (Q8IIJ9 whole entry, looked up): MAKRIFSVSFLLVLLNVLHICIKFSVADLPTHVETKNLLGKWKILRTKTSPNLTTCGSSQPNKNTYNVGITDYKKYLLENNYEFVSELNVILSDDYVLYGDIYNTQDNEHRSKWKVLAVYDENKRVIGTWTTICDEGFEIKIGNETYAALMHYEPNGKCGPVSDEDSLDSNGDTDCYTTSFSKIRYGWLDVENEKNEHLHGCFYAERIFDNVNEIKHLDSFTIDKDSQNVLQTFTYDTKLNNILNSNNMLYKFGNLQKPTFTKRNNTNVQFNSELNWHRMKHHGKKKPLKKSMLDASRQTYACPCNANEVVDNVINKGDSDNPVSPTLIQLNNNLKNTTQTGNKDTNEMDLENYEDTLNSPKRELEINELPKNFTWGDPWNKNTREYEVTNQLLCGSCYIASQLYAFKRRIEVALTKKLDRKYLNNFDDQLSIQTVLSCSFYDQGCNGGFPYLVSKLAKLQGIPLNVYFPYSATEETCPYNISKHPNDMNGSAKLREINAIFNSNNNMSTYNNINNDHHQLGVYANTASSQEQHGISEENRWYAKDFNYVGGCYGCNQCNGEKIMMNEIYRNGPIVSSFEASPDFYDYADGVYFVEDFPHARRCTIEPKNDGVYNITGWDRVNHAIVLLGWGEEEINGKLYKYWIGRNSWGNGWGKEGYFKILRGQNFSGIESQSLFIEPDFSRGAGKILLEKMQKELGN

This test has as its target DPAP1 (Plasmodium falciparum, UniProt Q8IIJ9). Briefly: primary screen, percent inhibition; read by cleavage of a fluorogenic dipeptide substrate; higher = more effect of the substance. Further details: species or system P. falciparum D10 trophozoite lysates; single well.
Consider `Cc1onc(-c2ccccc2Cl)c1C(=O)NC12CC3CC(CC(C3)C1)C2`, for which the “% Inhibition @ 10 uM” value is -7%.

With `CC(C)CCNC(=O)c1nnc(Cc2c(F)cccc2Cl)o1`, the “% Inhibition @ 10 uM” value was -0.0709%.

On to `COc1ccc(CCNC(=O)C2CCN(S(=O)(=O)N3CCOCC3)CC2)cc1OC`, for which the “% Inhibition @ 10 uM” value is on record as -1.34%.

Regarding `CCOC(=O)N1CCN(C(=O)c2ccc(CS(=O)(=O)c3ccc(Br)cc3)o2)CC1`, the “% Inhibition @ 10 uM” value was determined as 3.77%.

As for `COC(=O)c1cc(-c2ccccc2)no1`, the “% Inhibition @ 10 uM” value came out at 22.9%.

In the case of `COc1ccc(-c2ccc(C(=O)N3CCOCC3)cc2)cc1`, the “% Inhibition @ 10 uM” value amounted to 85.3%.

As for `COc1ccc(-c2csc(NC(=O)CSc3nc(O)cc(-c4ccccc4)n3)n2)cc1`, the “% Inhibition @ 10 uM” value was found to be 3.87%.

Turning to `CCOC(=O)C1CCN(CC2CC=CCC2)CC1` (stereo not drawn), the “% Inhibition @ 10 uM” value is -6%.

With `CC(C)(C)c1ccc(C(=O)NCCC(=O)NCCC2=CCCCC2)cc1`, the “% Inhibition @ 10 uM” value is on record as -0.256%.

`Cc1ccc(-c2nc(NC(=O)CSc3nc(C)nc4sc5c(c34)CCC5)ns2)cc1`: the “% Inhibition @ 10 uM” value is -1.33%.

Turning to `O=C(COc1ccc(S(=O)(=O)NC2CCCCC2)cc1)NCC1CCCO1` (stereo not drawn), the “% Inhibition @ 10 uM” value was found to be 5.49%.

As to `CCCCC(CC(NC(=O)OCc1ccccc1)C(=O)NCC#N)c1ccccc1` (stereo not drawn), the “% Inhibition @ 10 uM” value turned out to be 2.92%.

Consider `CC(C)CCNC(=O)CCc1nnc2n(CCCOC(C)C)c(=O)c3ccccc3n12`, for which the “% Inhibition @ 10 uM” value is recorded as -3.21%.

As to `Cc1c(CNC2CCC(C)CC2)c(C(=O)O)c(C)n1Cc1c(F)cccc1Cl` (stereo not drawn), the “% Inhibition @ 10 uM” value is -0.23%.

As for `CN1CCN(c2nc3c(c(=O)[nH]c(=O)n3C)n2CC(=O)c2ccccc2)CC1`, the “% Inhibition @ 10 uM” value came to 0.331%.

On to `CCCCN(c1cc(OC)c(OC)c(OC)c1)C1CC2CCC(C1)N2C` (stereo not drawn), for which the “% Inhibition @ 10 uM” value was -1.66%.

Consider `CCN(CC)C(=O)C1CC(c2ccc(F)cc2)=NO1` (stereo not drawn), for which the “% Inhibition @ 10 uM” value was 1.24%.

Consider `CCCC(CCC)C(=O)Nc1ccc2c(c1)Nc1ccccc1CC2`, for which the “% Inhibition @ 10 uM” value is listed as 3.8%.

For `COc1ccc2c(CNCC(C)c3ccccc3)c(C(=O)O)[nH]c2c1` (stereo not drawn), the “% Inhibition @ 10 uM” value was -2.97%.

With `CCCc1ccc(C#N)c(SCC(=O)Nc2ccc(OCC)cc2)n1`, the “% Inhibition @ 10 uM” value was 2.38%.

`CCN1CCN(C(=O)c2cc(-c3ccc(OC)cc3)[nH]n2)CC1`: the “% Inhibition @ 10 uM” value is on record as 0.44%.

As to `CCOc1cc2c(cc1OCC)C(c1ccc(OC)cc1OC)NCC2` (stereo not drawn), the “% Inhibition @ 10 uM” value is 8.29%.

`COc1cc2nc(SCc3ccccc3F)n3nc(CCn4nc(C)cc4C)nc3c2cc1OC`: the “% Inhibition @ 10 uM” value is -0.499%.

On to `N#CC1(NC(=O)[C@H](Cc2c(F)cccc2F)NC(=O)c2ccc(-c3ccccc3Cl)nc2)CCSCC1`, for which the “% Inhibition @ 10 uM” value was -3.48%.

Turning to `CC(=O)Nc1nonc1-c1nc2ccccc2n1CC#N`, the “% Inhibition @ 10 uM” value was 3.05%.

As to `CN(C)Cc1nc(O)c2c(n1)-c1ccccc1CC21CCCCC1`, the “% Inhibition @ 10 uM” value is reported as 3.98%.

For the compound `COc1ccc(C2C(C#N)=C(N)Oc3[nH]c(C)nc32)cc1OCc1ccccc1` (stereo not drawn), the “% Inhibition @ 10 uM” value is -0.725%.
